# About 50,000 (12%) of roughly 420,000 compounds were called active. The shares of active, inactive and inconclusive entries below differ from those in the screen. Calls come from the whole dose curve; as a rule, active = well fitted inhibition curve with a large enough effect; inconclusive = small, poorly fitted or top-dose-only effect; inactive = flat fitted curve, though single readings scatter. No potency is given beside an inconclusive call; the fits are too rough.
# Test: qHTS for Inhibitors of human tyrosyl-DNA phosphodiesterase 1 (TDP1): qHTS in cells in presence of CPT; note: nearly all actives have a fitted effect of over 55% in size
# Details: chicken DT40 Tdp1-/-;hTDP1 cells + 20 nM CPT, ATP luminescence, 48 h; activity change, negative = growth inhibition: at 46.2 µM (top of the series) unless noted
# Method in brief: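 Cell growth measured by CellTiter-Glo luminescence after a minimum 48 h, 37 C compound exposure with 20 nM CPT in Tdp1-knockout DT40 cells stably expressing hTDP1, seeded 400/well; qHTS titration format.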
# % is set by controls: 0 for no effect and ±100 for the full control effect; potency is the fitted concentration of half-maximal effect; tags give direction and shape of the fitted curve.
SMILES,"activity change, negative = growth inhibition",Potency
Cc1ccc(NC(=O)CSCC(=O)NC2=NCCS2)cc1,inconclusive: -33.6% [inhibitor],–
CCOC(=O)c1sc(NC(=O)c2ccc3nc[nH]c3c2)nc1C,–,"inconclusive [inhibitor, full curve]"
Cc1cccc(-c2nnc(SCC(=O)NC3CC3)n2C)c1,inactive: -12.1%,–
CCOc1ccc(S(=O)(=O)NCc2ccncc2)cc1,–,active: 0.461 µM
COc1cc(/C=C2\C(=O)N(c3ccc(S(N)(=O)=O)cc3)N=C2C)ccc1OC(=O)c1ccco1,–,"inconclusive [inhibitor, single point]"
COc1ccc(NC(=O)C2CCN(S(=O)(=O)c3ccc4[nH]c(=O)oc4c3)CC2)c(OC)c1,–,"inconclusive [inhibitor, partial curve]"
Cc1ccc(NC(=O)c2cc3c(CO)cnc(C)c3oc2=Nc2cccc(C(N)=O)c2)cc1,inconclusive: -35.2% [inhibitor],–
Cc1cc(C)nc(NC(=NCCc2c[nH]c3ccccc23)NC(=O)c2ccco2)n1,–,active: 20.6 µM
O=C1C=CN(Cc2ccccc2)C(c2ccccc2)C1 (configuration not stated),–,"inconclusive [inhibitor, partial curve]"
CC(C(=O)N1CCc2ccccc21)n1cccc1 (configuration not stated),inconclusive: -35.4% [inhibitor],–
Cc1ccccc1-c1cc(=O)c2ccccc2o1,–,active: 20.6 µM
COCC(C)n1c(C)cc(C(=O)COC(=O)CCc2nc3ccccc3c(=O)[nH]2)c1C (configuration not stated),inactive: 5.55%,–
Fc1ccc(-n2cc(-c3ccccc3)c3c(N4CCOCC4)ncnc32)cc1,–,active: 20.6 µM
Cc1ccc(Nc2nc(Oc3ccc(OCc4ccccc4)nn3)nc(N3CCOCC3)n2)cc1,–,"inconclusive [inhibitor, partial curve]"
CCOc1ccc(OCC(=O)Nc2ccc(N3CCCCC3)cc2)cc1,inactive: -2.26%,–
CC(C)CC(=O)NC(=S)Nc1ccc(Cl)cn1,–,"inconclusive [inhibitor, single point]"
C=CC[N+](C)(C)CCN1C(=O)C2C(c3ccccc3)C=CC(c3ccccc3)C2C1=O (configuration not stated),inactive: -4.73%,–
Cc1cccc(C)c1NC(=S)N1CCOCC1,inactive: -2.54%,–
CC(OC(=O)C1CCN(S(=O)(=O)c2ccc(C(C)(C)C)cc2)CC1)C(=O)N(C)C1CCCCC1 (configuration not stated),–,"inconclusive [inhibitor, partial curve]"
Cc1cc(Br)cn2c(Cc3cccc(F)c3)c(-c3ccc(C#N)cc3)nc12,–,active: 18.4 µM
CSc1cccc(NS(=O)(=O)c2ccc(-c3coc(C)n3)cc2)c1,–,"inconclusive [inhibitor, single point]"
CCn1nnc(-c2ccccc2NC(=O)c2cc(OC)c(OC)c(OC)c2)n1,–,"inconclusive [inhibitor, single point]"
CCCN(CCC)C(=O)Cn1ccc(=N)c2ccccc21,–,"inconclusive [inhibitor, partial curve]"
COc1ccc(S(=O)(=O)N2CCCCC2)cc1NC(=O)CCC(=O)N1CCC(c2ccccc2)=N1,inactive: 7.05%,–

SMILES,"activity change, negative = growth inhibition",Potency
O=C(c1ccc(Br)o1)N1CCN(Cc2ccccc2Cl)CC1,–,"inconclusive [inhibitor, single point]"
O=C(O)C1CCN(S(=O)(=O)c2cccnc2)CC1,inactive: -10.6%,–
CC(C)C[C@H]1CN([C@@H](Cc2ccccc2)CN2CCCC2CN2C(=S)NC[C@@H]2Cc2ccccc2)C(=S)N1CC1CCCCC1 (some centres not stated),–,active: 6.51 µM
O=C(Nc1ccncc1)C1CCN(S(=O)(=O)c2c(Cl)cccc2Cl)CC1,–,"inconclusive [inhibitor, single point]"
CCN(CC)c1ccc(/C=N/n2nnnc2N)c(O)c1,–,active: 14.6 µM
COc1ccc(-c2nc(CNS(=O)(=O)c3ccc(C)cc3)cs2)cc1,–,"inconclusive [inhibitor, single point]"
CCn1c(SCC(=O)N/N=C/c2c[nH]c3ccccc23)nnc1-c1ccc(C(C)(C)C)cc1,–,"inconclusive [inhibitor, single point]"
c1ccc(-c2nc3ccccn3c2-c2ccccc2)cc1,–,"inconclusive [inhibitor, single point]"
COc1ccc(CNc2cc(C)nc3ncnn23)c(OC)c1,–,"inconclusive [inhibitor, partial curve, poor fit]"
CCOc1ccccc1C(=O)Nc1ccc(S(=O)(=O)N2CCCCC2c2cccnc2)cc1 (configuration not stated),–,active: 18.4 µM
Nc1ccccc1C#Cc1ccccc1,–,"inconclusive [inhibitor, single point]"
O=C(O)c1cc([N+](=O)[O-])ccc1C(=O)Nc1ccccc1,inactive: 15.7%,–
COc1ccc(CC(=O)Nc2ccccc2N2CCCC2)cc1OC,–,"inconclusive [inhibitor, single point]"
COc1cccc(NC(=O)CSC2=Nc3ccccc3C3=NC(CCC(=O)NCc4ccco4)C(=O)N23)c1 (configuration not stated),–,"inconclusive [inhibitor, single point]"
COc1ccc(C(=O)N2CCc3cc(OC)c(OC)cc3C2COc2ccccc2OC)cc1 (configuration not stated),–,active: 16.4 µM
CCc1ccc(-c2nc(NC(=S)NC(=O)c3cccs3)sc2C)cc1,–,"inconclusive [inhibitor, partial curve, poor fit]"
CCC[C@@H](CN1CCC[C@H]1CN1C(N)=NC[C@H]1C(C)C)N1C[C@@H]([C@H](C)CC)N(CCCC2CCCC2)C1=N,–,"inconclusive [inhibitor, single point]"
CCC1=C(c2cc(OC)c(OC)c(OC)c2)C2(CCCC2)C(=O)O1,–,"inconclusive [inhibitor, partial curve]"
CCCn1cnc2sc(C(N)=O)c(C)c2c1=O,inactive: -6.2%,–
COc1ccc(N2CCN(C3CCCN(Cc4ccc(F)cc4Cl)C3)CC2)cc1 (configuration not stated),–,"inconclusive [inhibitor, single point]"
COc1ccc(-c2oc3cc(O)c(OC)c(O)c3c(=O)c2OC)cc1,–,active: 10.3 µM
S=C(NCCSCc1ccccc1Cl)Nc1ccccc1,–,"inconclusive [inhibitor, single point]"
Cn1cccc1C(=O)N1CCC2(CCCN(C(=O)Nc3cccc(F)c3)C2)CC1,inactive: 2.74%,–
CCN(C(=O)CN1C(=O)S/C(=C\c2cccc(OC)c2)C1=O)C1CCS(=O)(=O)C1 (configuration not stated),inconclusive: -32.1% [inhibitor],–

SMILES,"activity change, negative = growth inhibition",Potency
CCCCN(CC)C(=O)Nc1ccc2c(c1)N(C)C(=O)c1ccccc1S2,–,"inconclusive [inhibitor, single point]"
CCC(C)(C(=O)NC1CCCCC1)N(C(=O)CC1NC(=O)NC1=O)c1c(C)n(C)n(-c2ccccc2)c1=O (configuration not stated),inactive: -4.73%,–
COc1ccc(N(CC(=O)NCCSc2ccccn2)S(=O)(=O)c2ccc(C)cc2)cc1OC,inconclusive: -31.2% [inhibitor],–
CN1CCN(c2ccc(CNS(=O)(=O)c3ccc(F)cc3Cl)cc2)CC1,–,active: 18.4 µM
O=C(Nc1ccc(Cl)c(Cl)c1)C1CC1,–,"inconclusive [inhibitor, single point]"
Cc1cccc(N2C(=O)/C(=C/c3cccnc3)SC2=S)c1,–,"inconclusive [inhibitor, full curve, poor fit]"
Cc1c(N2C(=O)CS/C2=N\N=C\c2ccccc2O)c(=O)n(-c2ccccc2)n1C,inactive: 0.231%,–
O=C(NC1CCN(CC(=O)N(c2ccccc2)c2ccccc2)CC1)c1ccc([N+](=O)[O-])cc1,–,"inconclusive [inhibitor, single point]"
COc1ccc(CC(=O)N2CCN(c3ccccc3F)CC2)cc1OC,inconclusive: -37% [inhibitor],–
CCCn1c(=O)c2sccc2n2c(CCCC(=O)Nc3ccc(C)c(F)c3)nnc12,–,"inconclusive [inhibitor, single point]"
Cc1sc2ncn(CC(=O)NCCCC(=O)N3CCN(Cc4ccc5c(c4)OCO5)CC3)c(=O)c2c1C,inactive: -14.8%,–
CCOc1ccc(C2CC(c3ccc(F)cc3)n3ncnc3N2)cc1 (configuration not stated),–,"inconclusive [inhibitor, single point]"
N#CC(Sc1ccccn1)c1ccc(Cl)cc1Cl (configuration not stated),inactive: -11.8%,–
COc1ccc(C)c2sc(N(Cc3cccnc3)C(=O)CCc3ccccc3)nc12,–,"inconclusive [inhibitor, single point]"
CC1(c2cccc(Br)c2)NC(=O)N(CC(=O)NC2CCCCC2)C1=O (configuration not stated),inactive: -0.726%,–
Nc1ccc(Sc2ccc([N+](=O)[O-])cc2)cc1,–,"inconclusive [inhibitor, partial curve, poor fit]"
COc1ccc(-c2noc(CN3CCN(c4ccccc4OC)CC3)n2)cc1OC,–,active: 20.6 µM
CCOC(=O)c1c(NC(=O)COC(=O)c2ccccn2)sc(C)c1C,inactive: 1.79%,–
Cc1ccc(C(=O)COC(=O)c2cc(-c3ccc(Cl)cc3)nc3ccccc23)cc1,–,active: 10.3 µM
COc1cc(/C=N\NC(=O)CNC(=O)C2COc3ccccc3O2)ccc1O (configuration not stated),–,"inconclusive [inhibitor, single point]"
O=C(/C=C/c1ccc2ccccc2n1)c1cc(Br)ccc1O,–,active: 11.6 µM
CCN1CCN(c2cc(C)c3cc(NC(=O)c4ccc(Br)o4)ccc3n2)CC1,inconclusive: -36.8% [inhibitor],–
CCCN1CNc2c(c(=O)[nH]c(=S)n2CCc2ccc(Cl)cc2Cl)C1,–,"inconclusive [inhibitor, single point]"
CC(C)C[C@@H](COc1ccccc1)N1CCN(CC(C)C)CCC1=O,–,"inconclusive [inhibitor, partial curve]"
